{"source": "PubChem BioAssay AID624296", "about": "(National Center for Advancing Translational Sciences (NCATS), 2012)", "note": "In all, about 350,000 compounds went through this assay and about 9,900 (2.8%) were called active. Inconclusive means that the source gave no clear call. Such entries were picked first, then a sample of the others. Calls come from the whole dose curve; as a rule, active = well fitted activation curve with a large enough effect; inconclusive = small, poorly fitted or top-dose-only effect; inactive = no such curve, though single readings can be large or run the other way. Potencies of inconclusive entries are left out as doubtful fits. Potency is the fitted concentration of half-maximal effect; tags give direction and shape of the fitted curve.", "data": [{"experiment": "A quantitative high throughput screen for small molecules that induce DNA re-replication in MCF 10a normal breast cells; note: nearly all actives have a fitted effect of over 50% in size; for activity, positive = re-replication: % of control where 0% means no effect.", "conditions": "MCF 10A DNA re-replication, Hoechst nuclear intensity, 48 h; activity, positive = re-replication: at 46.1 µM (top of the series)", "values": [{"smiles": "Cc1ccc(OCCNC(=O)CCNS(=O)(=O)c2ccc3ccccc3c2)cc1", "Potency": "inconclusive [activator, full curve, poor fit]"}, {"smiles": "O=C(c1ccc(C#CC2(O)CCCCC2)cc1)N1CCN(Cc2ccccc2)CC1", "activity, positive = re-replication": "inactive: 6.69%"}, {"smiles": "CN(C)CC(C)(C)CNS(=O)(=O)CC12CCC(CC1=O)C2(C)C", "note": "(centres undefined)", "activity, positive = re-replication": "inactive: -176% [at 0.0737 µM]"}, {"smiles": "CCCc1nc2oc3c(NCCN(C)C)ncnc3c2c2c1CCCC2", "Potency": "inconclusive [activator, full curve, poor fit]"}, {"smiles": "COc1cccc(Cn2cc(N)cn2)c1", "Potency": "inconclusive [activator, single point]"}, {"smiles": "NC(=S)N=Nc1c(O)[nH]c2cc(F)c(F)cc12", "activity, positive = re-replication": "inactive: -3.7%"}, {"smiles": "CC(C)(C)c1ccc(C(=O)NCc2nnc(SCC(=O)NC3CCCC3)o2)cc1", "Potency": "inconclusive [activator, single point]"}, {"smiles": "COCCN1C=C(C(=O)OC)C(c2ccc(Cl)cc2)C(C(=O)OC)=C1", "Potency": "active: 16.4 µM"}, {"smiles": "CC(CC(=O)NCc1ccco1)S(=O)(=O)c1ccc2c(c1)CCN2C(=O)C1CC1", "note": "(centres undefined)", "Potency": "inconclusive [activator, single point]"}, {"smiles": "CN(C(=O)/C(N=Nc1cccc(C(F)(F)F)c1)=C(\\O)C(F)(F)F)c1ccccc1", "Potency": "inconclusive [activator, single point]"}, {"smiles": "COc1ccccc1-c1ccc(/C=C2\\C=CC(=O)O2)o1", "Potency": "active: 20.6 µM"}, {"smiles": "Cc1noc(C)c1S(=O)(=O)N1CCC(C(=O)Nc2ccc(OC(F)(F)F)cc2)CC1", "Potency": "active: 15.8 µM"}, {"smiles": "Cn1nnnc1Sc1ncnc2scc(-c3cccc4ccccc34)c12", "Potency": "inconclusive [activator, full curve]"}, {"smiles": "COCCNc1cc(-c2ccccc2)nc2cc(-c3cccc(F)c3)nn12", "Potency": "inconclusive [activator, partial curve, poor fit]"}, {"smiles": "CN(C)C(=O)CSc1ccccc1C(=O)OCC(=O)NC1CC1", "activity, positive = re-replication": "inactive: 5.63%"}, {"smiles": "COc1ccc(NCC(=O)N/N=C/c2ccc3c(c2)OCCO3)cc1", "Potency": "inconclusive [activator, single point]"}, {"smiles": "CN(C)C(CNC(C(=O)Nc1ccc(F)cc1)c1ccccc1)c1ccccc1", "note": "(centres undefined)", "activity, positive = re-replication": "inactive: 8.98%"}, {"smiles": "ClC(Cl)(Cl)c1nc2ccccc2n2nncc12", "Potency": "inconclusive [activator, partial curve]"}, {"smiles": "CCCc1noc2c1/C(=N\\O)CC(c1ccccc1)C2", "note": "(centres undefined)", "Potency": "inconclusive [activator, partial curve, poor fit]"}, {"smiles": "COc1cc2c(cc1OC)CN(C(=O)c1cc(S(=O)(=O)N3CCOCC3)c(Cl)cc1Cl)CC2", "activity, positive = re-replication": "inactive: 7.04%"}, {"smiles": "O=C1CCCC2=C1C(c1ccc(O)cc1)c1c(ccc3ccccc13)N2", "note": "(centres undefined)", "Potency": "active: 16.4 µM"}, {"smiles": "COc1cccc(C(=O)N2CCN(c3ccccn3)CC2)c1", "Potency": "inconclusive [activator, single point]"}, {"smiles": "O=C(Nc1ccc(Cl)cc1)N1CCN(c2ccc3nnc(-c4ccc(F)cc4)n3n2)CC1", "Potency": "inconclusive [activator, single point]"}, {"smiles": "O=C1OCCN1C(=O)[C@H]1[C@H](c2ccccc2)C(c2ccccc2)=NN1c1ccccc1", "Potency": "active: 20.6 µM"}, {"smiles": "COc1ccc(N2CCN(C(=O)c3sc4ncn(CC(=O)N5CCCCC5)c(=O)c4c3C)CC2)cc1", "activity, positive = re-replication": "inactive: 9.79%"}, {"smiles": "CCC(C(=O)NCc1ccco1)N(C(=O)CNS(=O)(=O)c1ccccc1)c1ccccc1C", "note": "(centres undefined)", "activity, positive = re-replication": "inactive: -9.96%"}, {"smiles": "Cc1ccc(C(=O)NNC(=S)NC(=O)c2ccc(Cl)cc2)cc1", "Potency": "inconclusive [activator, single point]"}, {"smiles": "O=C(O)CNc1nc(-c2ccccc2)nc2c1oc1ccccc12", "activity, positive = re-replication": "inactive: 6.7%"}, {"smiles": "O=C(NN=C1CCCC1)c1[nH]c2ccc(Cl)cc2c1-c1ccccc1", "Potency": "active: 2.91 µM"}, {"smiles": "CC(=O)NS(=O)(=O)c1ccc(NC(=S)NC(=O)c2ccco2)cc1", "activity, positive = re-replication": "inactive: -10.7%"}, {"smiles": "CC[C@@H](C)CN1C(=O)N[C@@H](CCc2ccccc2)C(C(C)=O)=C1C", "Potency": "inconclusive [activator, full curve, poor fit]"}, {"smiles": "COc1ccc(Br)cc1C(=O)N/N=C/c1ccc2c(c1)n(C)c(=O)n2C", "Potency": "inconclusive [activator, partial curve, poor fit]"}, {"smiles": "O=C(c1cn(-c2ccccc2)nc1-c1cc2ccccc2oc1=O)N1CCOCC1", "activity, positive = re-replication": "inactive: -18.8%"}, {"smiles": "C/C=C1\\NC(=O)[C@H](CC(N)=O)N(C)C(=O)C([C@@H](C)O)NC(=O)C(CCCc2ccc(OC)cc2)NC(=O)[C@H](C(C)C)NC(=O)/C(=C\\C)NC(=O)[C@H](O)[C@@H](C[C@@H](O)CCCCCCC)NC(=O)[C@H](C)NC(=O)CN(C)C(=O)[C@H](CCC(N)=O)NC1=O", "note": "(some centres undefined)", "Potency": "active: 18.4 µM"}, {"smiles": "O=C(CCn1c2c(c3ccccc31)CCCC2)NNC(=O)c1ccc(Cl)c([N+](=O)[O-])c1", "Potency": "inconclusive [activator, single point]"}, {"smiles": "COc1ccc2nc(N)sc2c1", "activity, positive = re-replication": "inactive: 0.0903%"}, {"smiles": "Cc1c(N=C2SCC(=O)N2/N=C\\c2ccc(Br)cc2)c(=O)n(-c2ccccc2)n1C", "Potency": "inconclusive [activator, partial curve, poor fit]"}, {"smiles": "CCC(C(=O)N1CCOCC1)n1nc(C)c2c(C)n(-c3ccccc3)nc2c1=O", "note": "(centres undefined)", "activity, positive = re-replication": "inactive: -3.16%"}, {"smiles": "CCCn1nc(Oc2nc(NCC)nc(NCC)n2)ccc1=O", "Potency": "inconclusive [activator, partial curve, poor fit]"}, {"smiles": "N/C(Cc1ccc([N+](=O)[O-])cc1)=N\\OC(=O)c1ccc(Br)cc1", "Potency": "inconclusive [activator, single point]"}, {"smiles": "Cc1ccc(NC(=O)CN(C)C(=O)COc2cccc3cccnc23)cc1", "activity, positive = re-replication": "inactive: 1.13%"}, {"smiles": "CN1CCc2ccc(NC(=O)c3ccc(C(F)(F)F)cc3)cc2C1", "Potency": "inconclusive [activator, single point]"}, {"smiles": "Cc1cc(NC(=O)NC2(C(F)(F)F)Oc3ccc(Cl)cc3O2)no1", "note": "(centres undefined)", "activity, positive = re-replication": "inactive: -1.1%"}, {"smiles": "NNc1ncnc2c1cnn2-c1ccccc1", "Potency": "inconclusive [activator, single point]"}, {"smiles": "Cc1cccc(NC(=O)CSc2nnc(NC(=O)CN3CCCCC3)s2)c1", "activity, positive = re-replication": "inactive: 3.2%"}, {"smiles": "COc1cc(C(=O)NCc2cccc3ccccc23)cc(Cl)c1OC", "Potency": "inconclusive [activator, partial curve, poor fit]"}, {"smiles": "Cc1cccc(C)c1OCC(O)Cn1c2ccccc2c2ccccc21", "note": "(centres undefined)", "Potency": "active: 20.6 µM"}, {"smiles": "COC(=O)c1scc2c(=O)cc(C(F)(F)F)[nH]c12", "Potency": "inconclusive [activator, single point]"}, {"smiles": "Cc1ccc(S(=O)(=O)N2CCN(C(=O)COC(=O)Cc3cccc(C(F)(F)F)c3)CC2)c(C)c1", "activity, positive = re-replication": "inactive: 1.22%"}, {"smiles": "O=C(Nn1cnc2ccccc2c1=O)c1ccc(Cl)c([N+](=O)[O-])c1", "Potency": "inconclusive [activator, partial curve, poor fit]"}, {"smiles": "Cc1ccc(C(=O)NCCc2cc3ccc(C)c(C)c3[nH]c2=O)cc1[N+](=O)[O-]", "activity, positive = re-replication": "inactive: 1.59%"}, {"smiles": "COc1cc(Cl)ccc1OCc1cc(C(=O)N2C[C@@H]3CCC[C@H]2C3)no1", "Potency": "inconclusive [activator, partial curve, poor fit]"}, {"smiles": "CCOC(=O)c1cc(-c2csc(N/N=C/c3ccccc3Cl)n2)on1", "Potency": "inconclusive [activator, partial curve, poor fit]"}, {"smiles": "COC(=O)c1c(-c2ccc(OC)cc2)oc2ccccc12", "Potency": "inconclusive [activator, single point]"}, {"smiles": "O=C(Nc1nc2c(s1)CN(Cc1ccccc1)CC2)c1cccc(S(=O)(=O)N2CCc3ccccc32)c1", "Potency": "active: 10.3 µM"}, {"smiles": "COc1ccc2sc(NC(=O)NC(=O)c3c(Cl)cccc3Cl)nc2c1", "Potency": "inconclusive [activator, single point]"}, {"smiles": "COc1cccc(C(=O)/C=C/Nc2ccc(S(=O)(=O)Nc3cnc4ccccc4n3)cc2)c1", "Potency": "inconclusive [activator, single point]"}, {"smiles": "CCN(Cc1ccccc1)C(=O)c1ccc(C(=O)N(CC)Cc2ccccc2)cc1", "Potency": "inconclusive [activator, full curve, poor fit]"}, {"smiles": "O=C(CNC(c1ccccc1)c1ccccc1)Nc1ccccc1F", "Potency": "inconclusive [activator, single point]"}, {"smiles": "CC1CCCCC12NC(=O)N(CC(=O)N1CCN(S(=O)(=O)Cc3ccccc3)CC1)C2=O", "note": "(centres undefined)", "activity, positive = re-replication": "inactive: 1.77%"}, {"smiles": "COc1ccc(CC2S/C(=N/N=C/c3ccc(O)cc3)NC2=O)cc1", "note": "(centres undefined)", "activity, positive = re-replication": "inactive: -4.61%"}, {"smiles": "CCCNC(=O)CCc1c(C)nc2c(c(C)nn2-c2ccc(C)cc2)c1C", "Potency": "inconclusive [activator, single point]"}, {"smiles": "Cc1cccc(CCNC(=O)c2cccc3c2C(=O)N(C2CCCCC2)C3)c1", "Potency": "inconclusive [activator, single point]"}, {"smiles": "Cc1ccc(N=C2NC(=O)/C(=C/C=C/c3ccco3)S2)cc1C", "Potency": "active: 7.31 µM"}, {"smiles": "O=C(N/N=C/c1cccc2ccccc12)c1cccnc1", "activity, positive = re-replication": "inactive: 0.672%"}, {"smiles": "O=C(NCCc1ccc(Cl)cc1Cl)c1cc([N+](=O)[O-])c[nH]c1=O", "Potency": "inconclusive [activator, partial curve, poor fit]"}, {"smiles": "CC1CCN(CC(=O)Nc2ccc(S(=O)(=O)N3CCC(C)CC3)cc2)CC1", "Potency": "inconclusive [activator, partial curve]"}, {"smiles": "COc1ccc(CC(=O)Nc2ccc(N(C)C)c3ccccc23)cc1", "activity, positive = re-replication": "inactive: 8.27%"}, {"smiles": "Cc1cccc(OCCNC(=O)CSc2ccc(C(F)(F)F)cc2[N+](=O)[O-])c1", "Potency": "inconclusive [activator, single point]"}]}]}
